Laboratory results published in patent US20250115571A1, “OXOPIPERAZINE DERIVATIVES” (Inthera Bioscience AG, priority 2017, published 2025).
The name of at least one read-out is uncertain. Marks after values point to notes of the source that are not given here.

test system: CaSki cells; assay: Colony Formation Assay (CFA), 14 days; format: cell-based, human; details: colony formation assay, class by % inhibition at 0.7, 6 or 50 μM
Excerpt: Cell culture: CaSki cells were obtained from CLS GmbH, Eppelheim, Germany (cat. 300145) and subcultured in ready-to-use RPMI1640 Media (CLS GmbH cat. 820700) after addition of “Antibiotic Antimycotic Solution” (Sigma-Aldrich, St Louis, USA, cat. A5955) at 1:100 dilution. CaSki cells were expanded and aliquots kept frozen in liquid nitrogen according to manufacturer's instructions. Once thawed, aliquots were passaged every second or third day at a seed density of 20′000 cells/cm^2; and used for a maximum of twenty passages.
Preparation of the cells for CFA: Cell culture flasks were rinsed twice with Ca++/Mg++-free Phosphate-Buffered Saline (DPBS, CLS GmbH cat. 860015) and incubated with Accutase (CLS GmbH cat. 830100) for 15 min at 37° C. Cells were resuspended in a four-fold volume of ready-to use RPMI, centrifuged at 300 g for 10 minutes, the supernatant discarded and the cells resuspended in ready-to-use RPMI1640 by pipetting up and down ten times with a serological pipette. Cell density was determined with a Via-1 Cassette (Chemometec, Allerod, Denmark) on a Nucleocounter NC 3000 (Chemometec). The required amount of cells was first diluted 1:10 in ready-to-use RPMI; cells pipetted five times up-down with a serological pipette; and the 1:10 solution added to the final volume needed for the whole assay setup. Cells were mixed again by pipetting up and down twenty times with a serological pipette. The final cell density was 70 cells/ml.
Seeding: Cells were seeded column-wise in 6-well plates, while triplicates were treated row-wise. Three ml cell suspension solution (210 cells) were added per well.
Treatment: Compound stock solutions were prepared at a concentration of 30 mM in 50% DMSO/50% water; and diluted in the same solution so that the volume added to the wells was of 5 μl and the final DMSO well concentration 0.08%. Untreated cells (negative controls) were incubated in a) medium only; and b) 0.08% DMSO. […] Tests showing less than 75% or more than 95% inhibition were repeated. The plates were swirled gently after addition of the compounds and the cells incubated for 14 days at 37° C. Culture incubation solutions were replaced after one week.
Staining: Colonies were washed twice with ice-cold DPBS and fixed on ice with 1 ml ice-cold 10% methanol solution for 30 min. The methanol solution was removed and colonies incubated with 0.1% Crystal Violet/DBPS for 20 min at room temperature. The wells were rinsed with water at room temperature, let dry and colonies were counted. Compounds e.g., compounds of Table 2 and 3 were classified as follows: […]

Structure (SMILES)	Activity (inhibition of colony formation)
CC(C)C[C@@H]1NCCN([C@@H](CC(C)C)C(=O)N2CCC(CCN3C[C@@H](C)[C@@H](C)C3)CC2)C1=O [Compound 235, (S)-1-[(S)-1-[(4-{2-[(3R,4S)-3,4-Dimethyl-1-pyrrolidinyl]ethyl}-1-piperidyl)carbonyl]-3-methylbutyl]-3-isobutyl-2-piperazinone]	++++ (more than 90% inhibition of colony formation at a concentration of 6 μM)
CC(C)C[C@@H]1NCCN([C@@H](CC(C)C)C(=O)N2CCC3(CCCN(C)C3)CC2)C1=O [Compound 66, (S)-1-[(S)-3-Methyl-1-{(2-methyl-2,9-diaza-9-spiro[5.5]undecyl)car-bonyl}butyl]-3-isobutyl-2-piperazinone]	+++ (more than 90% inhibition of colony formation at a concentration of 50 μM)
CC(C)C[C@H]1C(=O)N([C@@H](CC(C)C)C(=O)N2CCC3(C[C@@H]2C)OCC(CN2CCCC2)CO3)CCN1CCCCCNC(=O)CCCC[C@@H]1SC[C@@H]2NC(=O)N[C@@H]21 (stereo partly drawn) [Compound 252, (1R,5S,6S)-6-(5-{5-[(S)-4-[(S)-1-({(S)-8-Methyl-3-[(1-pyrrolidinyl)methyl]-1,5-dioxa-9-aza-9-spiro[5.5]un-decyl}car-bonyl)-3-methylbutyl]-2-isobutyl-3-oxo-1-piperazinyl]pentyla-mino}-5-oxopentyl)-7-thia-2.4-diaza-bicyclo[3.3.0] octan-3-one]	++++ (more than 90% inhibition of colony formation at a concentration of 6 μM)
CCC[C@@H]1NCCN([C@@H](CCC)C(=O)N2CCC(CC(N)=O)CC2)C1=O [Compound 130, (1-{(S)-2-[(S)-2-Oxo-3-propyl-1-piperazinyl]valeryl}-4-piperidyl)acetamide]	+* (greater than 0% but less than or equal to 50% inhibition of colony formation at a concentration of 50 μM)
CC(C)C[C@@H]1NCCN([C@@H](CC(C)(C)C)C(=O)N2CCC(CC(N)=O)CC2)C1=O [Compound 116, (1-{(S)-2-[(S)-3-Isobutyl-2-oxo-1-piperazinyl]-4,4-dimethylvaleryl}-4-piperidyl)acetamide]	+* (greater than 0% but less than or equal to 50% inhibition of colony formation at a concentration of 50 μM)
CC[C@H](C)[C@@H]1NCCN([C@@H](CC(C)C)C(=O)N2CCC(CC(N)=O)CC2)C1=O [Compound 127, {1-[(S)-2-{(S)-3-[(S)-1-Methylpropyl]-2-oxo-3,4,5,6-tetrahydro-1H-pyrazin-1-yl}-4-methylvaleryl]-4-piepridyl}acetamide]	+* (greater than 0% but less than or equal to 50% inhibition of colony formation at a concentration of 50 μM)
CC(C)C[C@@H]1NCCN([C@@H](CC(C)C)C(=O)N2CCC(CC(C)(C)O)CC2)C1=O [Compound 25, (S)-1-[(S)-1-{[4-(2-Hydroxy-2-methylpropyl)-1-piperidyl]carbonyl}-3-methylbutyl]-3-isobutyl-2-piperazinone]	++ (more than 50% inhibition of colony formation at a concentration of 50 μM)
CC(C)C[C@@H]1NCCN([C@@H](CC(C)C)C(=O)N2CCC(CCN3CCC[C@@H](C)C3)CC2)C1=O [Compound 281, (S)-1-[(S)-1-[(4-{2-[(R)-3-Methyl-1-piperidyl]ethyl}-1-piperidyl)carbonyl]-3-methylbutyl]-3-isobutyl-2-piperazinone]	++++ (more than 90% inhibition of colony formation at a concentration of 6 μM)
CC(C)C[C@H]1C(=O)N([C@@H](CC(C)C)C(=O)N2CCC(CCN3CCC4(CC3)CC4)CC2)CCN1C [Compound 289, (S)-1-[(S)-1-[(4-{2-(6-Aza-6-spiro[2.5]octyl)eth-yl}-1-piperidyl)carbonyl]-3-methylbutyl]-3-isobutyl-4-methyl-2-piperazinone]	++++ (more than 90% inhibition of colony formation at a concentration of 6 μM)
CC(C)C[C@@H]1NCCN([C@@H](CC2CCCCC2)C(=O)N2CCC(CC(N)=O)CC2)C1=O [Compound 120, (1-{(S)-2-[(S)-3-Isobutyl-2-oxo-1-piperazinyl]-3-cyclohexylpro-pionyl}-4-piperidyl)acetamide]	++ (more than 50% inhibition of colony formation at a concentration of 50 μM)
CC(C)C[C@@H]1NCCN([C@@H](CC(C)C)C(=O)N2CCCC(CC(N)=O)C2)C1=O (stereo partly drawn) [Compound 102, (1-{(S)-2-[(S)-3-Isobutyl-2-oxo-1-piperazinyl]-4-methylvaleryl}-3-piepridyl)acetamide]	+* (greater than 0% but less than or equal to 50% inhibition of colony formation at a concentration of 50 μM)
CC(C)C[C@@H]1NCCN([C@@H](CC(C)C)C(=O)N2CCC(Cc3cccnc3)CC2)C1=O [Compound 11, (S)-1-[(S)-3-Methyl-1-({4-[(3-pyridyl)methyl]-1-piperidyl}car-bonyl)butyl]-3-isobutyl-2-piperazinone]	+++ (more than 90% inhibition of colony formation at a concentration of 50 μM)
CC(C)C[C@H]1C(=O)N([C@@H](CC(C)C)C(=O)N2CCC(CCN3CCC(F)(F)CC3)CC2)CCN1C [Compound 269, (S)-1-[(S)-1-({4-[2-(4,4-Difluoro-1-piperidyl)ethyl]-1-piperidyl}carbonyl)-3-methylbutyl]-3-isobutyl-4-methyl-2-piperazinone]	*+ (greater than 0% but less than or equal to 50% inhibition of colony formation at a concentration of 0.7 μM)

same assay, conditions: inhibition of colony formation, 14 days, classes at 6, 50 or 0.7 μM

Structure (SMILES)	Activity
CC(C)C[C@@H]1NCCN([C@@H](CC(C)C)C(=O)N2CCC(CC(=O)OC3CCC3)CC2)C1=O [Compound 197, Cyclobutyl (1-{(S)-2-[(S)-3-isobutyl-2-oxo-1-piperazinyl]-4-methylvaleryl}-4-piperidyl)acetate]	++ (more than 50% inhibition of colony formation at a concentration of 50 μM)
COC(=O)c1cccc(OCC2CCN(C(=O)[C@H](CC(C)C)N3CCN(C(C)=O)[C@@H](CC(C)C)C3=O)CC2)c1 [Compound 228, Methyl m-[(1-{(S)-2-[(S)-4-acetyl-3-isobutyl-2-oxo-1-piperazinyl]-4-methylvaleryl}-4-piperidyl)meth-oxy]benzoate]	+++ (more than 90% inhibition of colony formation at a concentration of 50 μM)
C=CCCn1ccnc1CC1CCN(C(=O)[C@H](CC(C)C)N2CCN[C@@H](CC(C)C)C2=O)CC1 [Compound 159, (S)-1-[(S)-1-[(4-{[1-(3-Butenyl)-1H-imidazol-2-yl]methyl}-1-piperidyl)carbonyl]-3-methylbutyl]-3-isobutyl-2-piperazinone]	+++ (more than 90% inhibition of colony formation at a concentration of 50 μM)
CC(C)COC(=O)CC1CCN(C(=O)[C@H](CC(C)C)N2CCN[C@@H](CC(C)C)C2=O)CC1 [Compound 198, Isobutyl (1-{(S)-2-[(S)-3-isobutyl-2-oxo-1-piperazinyl]-4-methylvaleryl}-4-piperidyl)acetate]	++ (more than 50% inhibition of colony formation at a concentration of 50 μM)
Cc1cccc(OCC2CCN(C(=O)[C@H](CC(C)C)N3CCN[C@@H](CC(C)C)C3=O)CC2)c1 [Compound 167, (S)-1-[(S)-3-Methyl-1-({4-[(m-tolyloxy)methyl]-1-piperidyl}car-bonyl)butyl]-3-isobutyl-2-piperazinone]	+++ (more than 90% inhibition of colony formation at a concentration of 50 μM)
CC(C)C[C@@H]1NCCN([C@@H](CC(C)C)C(=O)N2CCC(C(=O)OCC3CC3)CC2)C1=O [Compound 219, Cydopropylmethyl 1-{(S)-2-[(S)-3-isobutyl-2-oxo-1-piperazinyl]-4-methylvaleryl}-4-piperidinecarboxylate]	+* (greater than 0% but less than or equal to 50% inhibition of colony formation at a concentration of 50 μM)
CC(C)C[C@@H]1NCCN([C@@H](CC(C)C)C(=O)N2CCC(CC(=O)N3CCN(C)CC3)CC2)C1=O [Compound 150, (S)-1-[(S)-3-Methyl-1-({4-[2-(4-methyl-1-piperazinyl)-2-oxoethyl]-1-piperidyl}car-bonyl)butyl]-3-isobutyl-2-piperazinone]	++ (more than 50% inhibition of colony formation at a concentration of 50 μM)
CCC(C)OC(=O)CC1CCN(C(=O)[C@H](CC(C)C)N2CCN[C@@H](CC(C)C)C2=O)CC1 (stereo partly drawn) [Compound 200, sec-Butyl (1-{(S)-2-[(S)-3-isobutyl-2-oxo-1-piperazinyl]-4-methylvaleryl}-4-piperidyl)acetate]	+++ (more than 90% inhibition of colony formation at a concentration of 50 μM)
